The whole screen tested about 340,000 compounds, of which about 20 (0.006%) were called active. Inconclusive means that the source gave no clear call. Such entries were picked first, then a sample of the others. Calls follow the shape of the dose curve; as a rule, active = well fitted inhibition curve with a large enough effect; inconclusive = small, poorly fitted or top-dose-only effect; inactive = no such curve, though single readings can be large or run the other way. Potencies of inconclusive entries are doubtful fits and often do not repeat.
Each compound was assayed against Sphingomyelin phosphodiesterase (Homo sapiens) (UniProt P17405) (assay: Inhibitors of Secretory Acid Sphingomyelinase (S-ASM): qHTS). Conditions: placental ASM, HMU-PC fluorogenic substrate (series up to 57.5 µM), 60 min.
Chain of UniProt P17405 (P17405 whole entry, looked up): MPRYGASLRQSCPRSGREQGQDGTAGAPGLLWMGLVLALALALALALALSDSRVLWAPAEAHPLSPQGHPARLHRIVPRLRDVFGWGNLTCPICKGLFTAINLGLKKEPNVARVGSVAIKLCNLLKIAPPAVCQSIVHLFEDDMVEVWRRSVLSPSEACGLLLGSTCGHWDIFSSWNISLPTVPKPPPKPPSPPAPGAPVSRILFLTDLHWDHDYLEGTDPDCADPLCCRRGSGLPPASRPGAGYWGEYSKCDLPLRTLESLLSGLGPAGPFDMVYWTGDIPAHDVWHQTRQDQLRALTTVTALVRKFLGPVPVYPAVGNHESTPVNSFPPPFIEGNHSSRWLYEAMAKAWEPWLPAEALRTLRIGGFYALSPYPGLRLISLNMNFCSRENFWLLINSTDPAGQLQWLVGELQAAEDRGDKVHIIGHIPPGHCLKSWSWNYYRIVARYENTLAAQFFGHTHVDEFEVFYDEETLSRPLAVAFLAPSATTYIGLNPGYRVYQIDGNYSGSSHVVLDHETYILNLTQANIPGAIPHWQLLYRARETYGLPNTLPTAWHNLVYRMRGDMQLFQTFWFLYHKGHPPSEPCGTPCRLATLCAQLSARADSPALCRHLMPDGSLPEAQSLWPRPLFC
Procedure, shortened: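 Fluorogenic HMU-PC substrate (9 uM final) is turned over by placental ASM in 60 min at 37 C after a 10 min compound preincubation. Reaction ended by alkaline stop (pH 10), with fluorescence read at 386/447 nm.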
Potency is read from the fitted curve at half-maximal effect; tags tell the direction and shape of the fitted curve.

SMILES	Potency
O=c1[nH]c(C2CCN(S(=O)(=O)Cc3ccccc3)CC2)nc2c1nnn2Cc1cccc(Cl)c1	inconclusive: 89.1 µM [inhibitor, single point]
O=P(OC1CCCCC1)(OC1CCCCC1)C(O)c1ccccc1 (stereo not given)	inactive
CCOC(=O)n1c(=O)n(Cc2ccccc2Cl)c2ccccc21	inactive
COc1ccc(C2=Nn3c(nnc3-c3ccncc3)SC2)cc1OC	inactive
O=C(Nc1cccc(C(F)(F)F)c1)C(Sc1ncnc2ccccc12)c1ccccc1 (stereo not given)	inconclusive: 224 µM [inhibitor, partial curve, poor fit]
O=C(N/N=C/c1c(O)n(-c2ccc(Cl)cn2)c(=O)c2ccccc12)C1CC1	inactive
CCCOc1ccc(N2C(=O)CC(N3CCN(c4ccc([N+](=O)[O-])cc4)CC3)C2=O)cc1 (stereo not given)	inactive
N=C1/C(=C\c2ccc(SCc3ccccc3)o2)C(=O)N=C2SC(CC(=O)N3CCOCC3)=NN12	inconclusive: 251 µM [inhibitor, partial curve, poor fit]
O=C(N/N=C\c1c(O)ccc2ccccc12)c1cncc(Br)c1	inconclusive: 70.8 µM [inhibitor, single point]
Oc1ccc(C[C@H]2CNC(=S)N2CC2CCCN2C[C@H](Cc2ccc(O)cc2)N2C[C@H](Cc3ccccc3)N(CC3CCCCC3)C2=S)cc1 (stereo not given in full)	inconclusive: 79.4 µM [inhibitor, single point]
COc1ccc(NS(=O)(=O)c2ccc3nc(COc4ccc5ccccc5c4)[nH]c3c2)cc1	inconclusive: 316 µM [inhibitor, partial curve, poor fit]
O=C(CN1C(=O)NC2(CCCCCCC2)C1=O)NCc1ccc(Cl)cc1	inactive
O=C(COCC(=O)Nc1cccc(C(F)(F)F)c1)Nc1cccc(C(F)(F)F)c1	inconclusive: 316 µM [inhibitor, partial curve, poor fit]
O=C1CCSc2ccc(Cl)cc2N1Cc1ccc(Cl)cc1	inconclusive: 112 µM [inhibitor, partial curve, poor fit]
CCCCCCCCCCCC(=O)NC(C(=O)OCC)C(O)c1cccc([N+](=O)[O-])c1 (stereo not given)	inconclusive: 100 µM [inhibitor, partial curve, poor fit]
CCCOC(=O)c1ccc(Oc2c(-c3ccc(OC)cc3O)n[nH]c2C)cc1	inconclusive: 89.1 µM [inhibitor, single point]
Fc1ccc2c(c1)Sc1ccc(Cl)cc1CC2N1CCN(CCC2OCCO2)CC1 (stereo not given)	inactive
CC(NS(=O)(=O)OCC(Cl)(Cl)Cl)c1ccc(C(C)(C)C)cc1 (stereo not given)	inconclusive: 100 µM [inhibitor, single point]
O=C(Nc1nnc(C2CCCCC2)s1)C1CC(=O)N(c2ccc(F)cc2)C1 (stereo not given)	inconclusive: 112 µM [inhibitor, partial curve, poor fit]
CC(C)OCCCN1C(=O)c2[nH]nc(-c3ccccc3O)c2C1c1cccc(Cl)c1 (stereo not given)	inactive
Cc1ccc(C(=O)c2c(NC(=O)c3ccncc3)sc3c2CCCC3)cc1	inconclusive: 112 µM [inhibitor, partial curve, poor fit]
COC(=O)c1ccc(Cn2nc(-c3ccc(C)c(C)c3)ccc2=O)cc1	inconclusive: 141 µM [inhibitor, partial curve, poor fit]

SMILES	Potency
O=C(c1ccccc1)N1CCN(c2ccc([N+](=O)[O-])c(NCc3ccco3)c2)CC1	inconclusive: 89.1 µM [inhibitor, single point]
c1ccc(-[n+]2nc(Nc3cccc4ccccc34)sc2-c2c3ccccc3cc3ccccc23)cc1	inconclusive: 50.1 µM [inhibitor, partial curve, poor fit]
COc1ccc(-c2nc3ccccc3nc2-c2ccccc2)cc1	inactive
CN(Cc1ccco1)S(=O)(=O)c1csc(C(N)=O)c1	inactive
COc1ccc(-c2nn(-c3ccccc3)cc2C(=O)Nc2nccs2)cc1	inconclusive: 112 µM [inhibitor, partial curve]
O=C(Oc1ccc(Cl)c2cccnc12)c1cccnc1	inactive
O=C(COc1ccccc1Br)Nc1ccccc1C(F)(F)F	inconclusive: 398 µM [inhibitor, partial curve, poor fit]
CC1CC(C)CN(CCCNC(=O)c2ccc3c(c2)N(Cc2ccccc2)C(=O)c2ccccc2S3=O)C1 (stereo not given)	inactive
CCOC(=O)c1c(NC(=O)C[n+]2ccc(Cc3ccccc3)cc2)sc(C)c1C	inconclusive: 1000 µM [inhibitor, partial curve, poor fit]
CC(OC(=O)c1ccc(NS(=O)(=O)c2ccc3[nH]c(=O)[nH]c3c2)cc1)C(=O)Nc1ccc(Cl)cc1 (stereo not given)	inconclusive: 89.1 µM [inhibitor, partial curve, poor fit]
C=CCSc1nsc(NC(=O)Nc2ccc(F)cc2)n1	inconclusive: 100 µM [inhibitor, partial curve, poor fit]
CCCCCCOC(=O)C(C#N)c1nc2ccccc2nc1N1CCOCC1 (stereo not given)	inconclusive: 631 µM [inhibitor, partial curve, poor fit]
CC(=O)OC1CCC2(C)C(=CCC3C4CC(=O)N(O)C(=O)C4(C)CCC32)C1 (stereo not given)	inconclusive: 224 µM [inhibitor, partial curve, poor fit]
O=C1c2c(Cl)c(Cl)c(Cl)c(Cl)c2C(=O)N1c1nccs1	inactive
COc1cc(/C=C2/C(=N)N3C(=NC2=O)SN=C3S(C)(=O)=O)ccc1OC(=O)c1ccco1	inconclusive: 28.2 µM [inhibitor, partial curve, poor fit]
Cn1c(C(=O)NCCc2ccsc2)cc2c(=O)n(C)c3ccccc3c21	inconclusive: 355 µM [inhibitor, partial curve, poor fit]
C=CCCC(=O)Nc1nc(C)c(-c2csc(Nc3cc(Cl)ccc3OC)n2)s1	inconclusive: 708 µM [inhibitor, partial curve, poor fit]
Cc1cc(NS(=O)(=O)c2ccc(Nc3nc(-c4ccc(O)cc4)cs3)cc2)no1	inconclusive: 100 µM [inhibitor, partial curve, poor fit]
COC(=O)CCC(=O)OC1(C)C(=O)C2=CN(C3CCCC3)C(c3ccc(OC)cc3)=CC2=C(Br)C1=O (stereo not given)	inactive
CN(C(=O)Nc1ccc(Cl)cc1Cl)[C@H]1c2cc(Br)ccc2OC[C@H]1CO	inconclusive: 316 µM [inhibitor, partial curve, poor fit]
C=CCn1c(O)c(C2=c3ccccc3=NC2=O)sc1=Nc1ccc(O)cc1	inconclusive: 70.8 µM [inhibitor, partial curve]
CN(C)c1ccc(/C=C/C(=O)c2ccccc2O)cc1	inactive

SMILES	Potency
Cn1c(=O)c2c(nc(N3CCCCCC3)n2Cc2cccc3ccccc23)n(C)c1=O	inconclusive: 89.1 µM [inhibitor, partial curve]
Cc1ccc(-c2nnc(N3CCN(S(C)(=O)=O)CC3)c3ccccc23)cc1	inactive
COCCn1c(-c2ccc(Br)cc2)csc1=Nc1cccnc1	inactive
CCC(C)NC(=O)c1cc2cc3ccc(OC)cc3nc2s1 (stereo not given)	inactive
CNS(=O)(=O)c1ccc(NCC2COc3ccccc3O2)c([N+](=O)[O-])c1 (stereo not given)	inconclusive: 89.1 µM [inhibitor, single point]
Cc1c(CN(C)C)c2c(n1Cc1ccccc1)C(=O)c1ccc(Br)cc1-2	inconclusive: 251 µM [inhibitor, partial curve, poor fit]
CC(C)(CO)NCc1ccccc1OCC(=O)Nc1ccccc1	inactive
COc1cccc(=O)c2c(C)n(CC(=O)c3ccccc3)c(C)c12	inconclusive: 282 µM [inhibitor, partial curve, poor fit]
CCc1ccc(/C=C2\SC(=S)N(CCCC(=O)Nc3ccccn3)C2=O)cc1	inconclusive: 112 µM [inhibitor, partial curve, poor fit]
Cc1cc(C)cc(NC(=O)c2oc3ccccc3c2COc2ccccc2)c1	inactive
Cc1nc2ccccc2c2oc(C(=O)Nc3ccc(C(C)C)cc3)cc12	inconclusive: 56.2 µM [inhibitor, partial curve, poor fit]
Cc1[nH]n(-c2ccccc2)c(=O)c1N=Nc1c(O)cc(S(=O)(=O)N(C)C)c2ccccc12	inactive
Cc1ccc2nc(SCC(=O)c3c(C)[nH]c4ccccc34)[nH]c2c1	inconclusive: 89.1 µM [inhibitor, single point]
CCOC(=O)Cc1cc(=O)[nH]n(-c2ccccc2)c1=O	inactive
CCn1c(SCc2ccc(Cl)cc2)nc2nc3c(cc2c1=O)CCCC3	inconclusive: 891 µM [inhibitor, partial curve, poor fit]
Cc1nn(C)c(C)c1CNC(=O)c1nn2c(c1Cl)NC(c1cccs1)CC2C(F)(F)F (stereo not given)	inactive
Cc1ccc(OC(C)C(=O)N=Nc2c(O)[nH]c3ccc([N+](=O)[O-])cc23)cc1 (stereo not given)	inconclusive: 112 µM [inhibitor, partial curve, poor fit]
CCOc1cccc(NC(=O)C2CC(=O)N(C)C(=Nc3ccccc3)S2)c1 (stereo not given)	inconclusive: 79.4 µM [inhibitor, single point]
O=C(CSc1ncnc2c1cnn2-c1ccccc1)Nc1ccc2c(c1)OCO2	inactive
COc1cc(NC(=O)COC(=O)/C=C/c2ccccc2Cl)cc(OC)c1	inconclusive: 1120 µM [inhibitor, partial curve, poor fit]
CCN(C(=O)COC(=O)c1ccccc1Oc1ccccc1)c1c(N)n(Cc2ccccc2)c(=O)[nH]c1=O	inactive
